# Read counts are not given, so values of variants with three or more changes are uncertain.
# B1: LINE1-full (parent)
# chain: UACGUAGGUGGUUUUCCCCUGAUAGUGCUAAGGGGGCCUGGAAGUUUGGACUGGGCAGAGCUCAACACAGCGUGGCAAAGUGGCUGUGGCUAGACUGCCUCUCUGGAUUCCUCGUCACUCAGCAGGGCAUCUCUGAGAGAAAUGCC
# Variants of: B1
# Assay: self-cleavage, relative activity (ratio to wild type); higher = more cleavage; in vitro, sequencing; the parent is a self-cleaving ribozyme
row,Variant,self-cleavage
1,G8A U14C A59U U91C,1.16
2,G8A U15C C113A A140G,1.22
3,G8A U15C U39C C146U,1.45
4,G8A U15C U87A U91C,0
5,G8A U20A A22G A43G U45A C103U,0.99
6,G8A U20A G21U U45C U47C,0.94
7,G8A U20A U52A G74U U134A,1.15
8,G8A U23A U87A,0.05
9,G8A U29C U108C U130C,0
10,G8A U47C U52C,1.36
11,G8A U52C A140G,0.62
12,G8A U102C U119C A121U,1.44
13,G8C A59G C146U,0.14
14,G8C A94G C133A,0
15,G8C C19U U62C,0
16,G8C U9A A64U U87A U104A A107C,0.12
17,G8C U14C A142G,0.82
18,G8C U20C U26C,2.51
19,G8U A30G G35U,1.02
20,G8U U12G U46C C51U G80A A124U,1.57
21,G8U U14C U52A,1.56

row,Variant,self-cleavage
1,G8U U96C U119A,0.3
2,U9A A22G A59G,0.62
3,U9A A22G A78G,1.05
4,U9A A22G G86A U100C,0.17
5,U9A A22G U96C G97C U109C,0.25
6,U9A A24G A42G U81A U87A,0.32
7,U9A A24G C111U G126A U132C A141G,1.01
8,U9A A24G G88A,0.14
9,U9A A24U U26A U96C,0.4
10,U9A A30C A136G,0.95
11,U9A A30G A31U,1.5
12,U9A A30G A121G,0.66
13,U9A A42G U46C A59U A65G,0
14,U9A A42G U96C G105U U132C A141G,0.17
15,U9A A42U U47C,1.46
16,U9A A42U U115C,1.33
17,U9A A43G A78G,0.38
18,U9A A43G U47A A141G,1.13
19,U9A A43G U47A U115C,2.51
20,U9A A43G U62A A92U A121U,0
21,U9A A43U A79U A92G,0.24

row,Variant,self-cleavage
1,U9A A43U U62C,0.12
2,U9A A50G A136G,0.89
3,U9A A57U A67G A121G,0.77
4,U9A A57U U62C C123A,0.09
5,U9A A59G A107G,0
6,U9A A59G A142G,0
7,U9A A64G A107G,0
8,U9A A64G A107U,0.22
9,U9A A64G C118G,0.2
10,U9A A65G A78G,0
11,U9A A65G U100C,0.15
12,U9A A67G U85C,0.44
13,U9A A69G U100C,0.97
14,U9A A69U G89C,0.02
15,U9A A77C G89A A129U,0.14
16,U9A A77G A92G U134C,0
17,U9A A77U U115C U143C,2.06
18,U9A A78G A142G,1.05
19,U9A A78G U134C,0.56
20,U9A A79G A107G,0.89
21,U9A A92G A140G,0.33

row,Variant,self-cleavage
1,U9A A94U A107G,0.33
2,U9A A107G A117G,1.67
3,U9A A138G C145U,0.98
4,U9A C16U G72A U91C U119G A129G A136G,0
5,U9A C18A U96C,0.43
6,U9A C19U A24G U143C,0.75
7,U9A C19U A121U A141G,0.66
8,U9A C19U U26C U29C A79G,0
9,U9A C37A A92G U109C,0.18
10,U9A C37U G72A U134A A140G,0.35
11,U9A C51A U102C,1.19
12,U9A C110A A141G,1.97
13,U9A C118U A138G,1.8
14,U9A C118U A142G,1.71
15,U9A G32A A42G U85C A141G,0.1
16,U9A G34A C76A U81C A142G U143C,1.29
17,U9A G35U A67U U130A,0.1
18,U9A G35U U52C A117C A138G,0
19,U9A G36A G54A C68U U85A,0.04
20,U9A G53A A64U U104C,0.65

# Reference: the RNAGym collection of RNA variant scans (doi:10.7554/elife.90254)
